# Laboratory results: PubChem BioAssay AID445 (National Center for Advancing Translational Sciences (NCATS), 2006)
# About 40 (0.04%) of roughly 110,000 compounds were called active. Inconclusive means that the source gave no clear call. Such entries were picked first, then a sample of the others. The call rests on the fitted dose curve; in most records, active means well fitted curve in the direction sought with a large enough effect in the signal ratio (not every such curve was filed as active); inconclusive means small, poorly fitted or top-dose-only effect, or a change in a side signal; inactive means flat fitted curve, though single readings scatter; the % refers to the signal ratio. A potency beside an inconclusive call is a rough fit, not a confirmed value.
# Assay: IkB Signaling;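 on IkBa stabilization activation: 0% = basal untreated cells and 100% = reference inhibitor full response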
# Conditions: ABC-DLBCL IkBa-CBG/CBR dual luciferase ratio (green luciferase fused to IkBa over red control in OCI-Ly3 lymphoma cells), 4 h, scaled: untreated 0%
# Procedure, shortened: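 In this assay, an IκBα–CBG68 fusion accumulates when IKK-driven degradation is blocked; native CBR normalizes for cell number. OCI-Ly3 cells were treated 4 h with compound and doxycycline, then green and red light read after Chroma-Glo addition.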
# [1] = IkBa stabilization activation: at 57.1 µM (top of the series), proteasome inhibitor 100% unless noted
# Potency means the concentration at half of the fitted maximal effect.
structure (smiles),measurement,setting,value
NC(=O)CN1C[C@@H](O)CC1=O,IkBa stabilization activation,[1],inactive
CCCOC(=O)COc1cc(C)cc2oc(=O)c3c(c12)CCC3,IkBa stabilization activation,[1],inactive
COc1ccc(OC)c(NC(=O)Cn2cc(C(=O)c3ccccc3)c3ccccc32)c1,IkBa stabilization activation,[1],inconclusive: 3.34% [signal inhibitor]
COc1ccc(-c2nc(CN3C(=O)CN=C(c4ccccc4)c4cc(Cl)ccc43)c(C)o2)cc1,IkBa stabilization activation,[1],inconclusive: 2.12% [signal inhibitor]
CCC(=NC1CC1)c1c(O)n(C2CCCCC2)c(=O)[nH]c1=O,IkBa stabilization activation,[1],inactive
Nc1c(C(=O)NCCc2ccccc2)c2nc3ccccc3nc2n1CCN1CCOCC1,IkBa stabilization activation,[1],inconclusive: -6.84% [signal inhibitor]
c1ccc(P(c2ccccc2)c2ccccc2)cc1,IkBa stabilization activation,[1],inactive
O=C1C[C@@H]2OCC=C3CN4CC[C@]56c7ccccc7N1[C@H]5[C@@H]2[C@H]3C[C@@H]46,IkBa stabilization activation,[1],"inactive: -0.279% [at 11.4 µM, scaled: untreated 0%, proteasome inhibitor 100%]"
Nc1ccccc1C(=O)O,IkBa stabilization activation,[1],inactive
CN1Cc2c(ccc3c2OCO3)[C@@H]2[C@@H](O)Cc3cc4c(cc3[C@@H]21)OCO4,IkBa stabilization activation,"at 11.4 µM (top of the series), proteasome inhibitor 100%",inconclusive: 15.9% [signal activator]
same,IkBa stabilization activation,"at 25.6 µM (top of the series), proteasome inhibitor 100%",inconclusive: 16.1% [signal activator]
O=C(Nc1ccc2c(c1)OCCO2)c1cccn(Cc2cccc(F)c2)c1=O,IkBa stabilization activation,[1],inconclusive: 12.9% [signal inhibitor]
CO[C@H]1[C@H](O)[C@H](O[C@@H]2[C@H](Oc3cccc4c(O)c5c(=O)oc6ccc(C)c7c(=O)oc(c34)c5c67)O[C@@H](C)[C@H](O)[C@H]2O)O[C@@H](C)[C@@H]1O,IkBa stabilization activation,[1],"inactive: 1.1% [at 11.4 µM, scaled: untreated 0%, proteasome inhibitor 100%]"
Cc1ccc(Cl)cc1N1CCN(CCN)CC1,IkBa stabilization activation,[1],inactive
CC(C)OCCCNC(=O)c1c(N)n(CC2CCCO2)c2nc3ccccc3nc12 (stereo unspecified),IkBa stabilization activation,[1],inconclusive: 6.87% [signal inhibitor]
CN[C@@H]1C[C@@H](c2ccc(Cl)c(Cl)c2)c2ccccc21,IkBa stabilization activation,[1],inactive
O=C(Nc1ccc(Cl)cc1C(=O)c1ccccc1)c1ccccc1Br,IkBa stabilization activation,[1],inconclusive: 5.59% [signal inhibitor]
COc1cc(C(c2c(O)c3ccccc3oc2=O)c2c(C)n(C)n(-c3ccccc3)c2=O)ccc1OCC(=O)O (stereo unspecified),IkBa stabilization activation,[1],inconclusive: 3.78% [signal inhibitor]
Cc1c(Cl)cccc1NC(=O)CN1C(=O)C(C)N=C(c2ccccc2)c2ccccc21 (stereo unspecified),IkBa stabilization activation,[1],inconclusive: 3.44% [signal inhibitor]
O=C(Oc1ccccc1)N1CCC[C@@]2(CCN(Cc3cc(C(F)(F)F)cc(C(F)(F)F)c3)C2)C1,IkBa stabilization activation,[1],"inactive: 1.06% [at 11.4 µM, scaled: untreated 0%, proteasome inhibitor 100%]"
CC1CN=C(Nc2cccc3ccccc23)S1 (stereo unspecified),IkBa stabilization activation,[1],inconclusive: 3.98% [signal inhibitor]
CCOC(=O)c1c(-c2ccc(OC)cc2)oc2ccc(OC(=O)N(C)C)cc12,IkBa stabilization activation,[1],inconclusive: -2.09% [signal inhibitor]
CC(C)[C@H]1C(=O)N2CCC[C@@H]2[C@]2(O)O[C@@](NC(=O)[C@H]3C=C4c5cccc6[nH]cc(c56)C[C@H]4N(C)C3)(C(C)C)C(=O)N12,IkBa stabilization activation,[1],"inactive: -1.28% [at 11.4 µM, scaled: untreated 0%, proteasome inhibitor 100%]"
O=C(Nc1ccc2c(c1)OCO2)c1cccn(Cc2cccc(F)c2)c1=O,IkBa stabilization activation,[1],inconclusive: 0.0753% [signal inhibitor]
Cc1ccc(Cn2nnnc2CN2CCC(n3nnc4cc(C(F)(F)F)ccc43)CC2)cc1,IkBa stabilization activation,[1],inconclusive: 1.23% [signal inhibitor]
Cn1cc(/C=C/c2nc3ccccc3c(=O)n2-c2ccccc2)c2ccccc21,IkBa stabilization activation,[1],inconclusive: -8.34% [signal inhibitor]
Nc1c(C(=O)Nc2ccc(Cl)cc2)sc2nc3c(cc12)N1CCC3CC1,IkBa stabilization activation,[1],inconclusive: 15.4% [signal inhibitor]
Cn1cc(C(=O)N2CCC3(CC2)OCCO3)c2c3ccccc3n(C)c2c1=O,IkBa stabilization activation,[1],inactive
COc1cc(C(c2c(O)c3ccccc3oc2=O)c2c(C)n(C)n(-c3ccccc3)c2=O)ccc1O (stereo unspecified),IkBa stabilization activation,[1],inconclusive: 1.19% [signal inhibitor]
COC1=C[C@H]2[C@@H]3Cc4ccc(OC)c(O)c4[C@@]2(CCN3C)CC1=O,IkBa stabilization activation,[1],"inactive: 0.632% [at 11.4 µM, scaled: untreated 0%, proteasome inhibitor 100%]"
N[C@H](Cc1ccc(N(CCCl)CCCl)cc1)C(=O)O,IkBa stabilization activation,[1],inactive
CCCN1CC[C@@H]2c3cc(O)ccc3CC[C@H]21,IkBa stabilization activation,[1],inactive
C=C(C)[C@@H]1CN[C@H](C(=O)O)[C@H]1CC(=O)O,IkBa stabilization activation,[1],inactive
COc1ccc2c(c1)CC1(CN2C)C(=O)NC(=O)N(CCc2ccccc2)C1=O (stereo unspecified),IkBa stabilization activation,[1],inactive
CC1=CC(=O)C2=C(C)CC(O)C3C(C)C(=O)OC3C12 (stereo unspecified),IkBa stabilization activation,[1],inactive
CCCCn1c(NC(=O)c2ccco2)c(C(=O)OCC)c2nc3ccccc3nc21,IkBa stabilization activation,[1],inactive
O=c1c2ccccc2nc(/C=C/c2ccccc2)n1-c1ccccc1F,IkBa stabilization activation,[1],inconclusive: 9.38% [signal inhibitor]
Cc1nnc(NC(=O)c2cccn(Cc3cccc(Cl)c3)c2=O)s1,IkBa stabilization activation,[1],inactive
Cc1cccc(N2CCc3c2nc2ccccc2c3N)c1,IkBa stabilization activation,[1],inconclusive: 3.58% [signal inhibitor]
CCN(CC)c1ncnc2c1ncn2[C@@H]1O[C@@H](COP(=O)(O)OP(=O)(O)C(Br)(Br)P(=O)(O)O)[C@H](O)[C@H]1O,IkBa stabilization activation,[1],inactive
O=C(O)c1cc[c]([Hg][S]c2ncnc3nc[nH]c23)cc1,IkBa stabilization activation,[1],"inactive: 8.39% [at 11.4 µM, scaled: untreated 0%, proteasome inhibitor 100%]"
O=C1CC(c2ccc(F)cc2)c2c(c3ccccc3oc2=O)O1 (stereo unspecified),IkBa stabilization activation,[1],inconclusive: 1.42% [signal inhibitor]
CN(N=O)c1ccc(O)c(O)c1,IkBa stabilization activation,[1],inactive
CCN1C[C@]2(C)CC[C@@H](O)[C@]34[C@@H]5CC6[C@@H](OC)C[C@@](O)([C@H]5[C@@H]6O)[C@@H](C[C@@H]23)[C@H]14,IkBa stabilization activation,[1],inactive
C=CCN=C=S,IkBa stabilization activation,[1],inactive
Cc1oc(-c2ccccc2Cl)nc1CN1C(=O)CN=C(c2ccccc2)c2cc(Cl)ccc21,IkBa stabilization activation,[1],inconclusive: -0.0818% [signal inhibitor]
N#Cc1cccc(NC(=O)c2sc3nc4c(cc3c2N)N2CCC4CC2)c1,IkBa stabilization activation,[1],inconclusive: -1.74% [signal inhibitor]
COc1ccc(NC(=O)CCc2nc(C3=CCN(Cc4cccc(Cl)c4)CC3)no2)cc1OC,IkBa stabilization activation,[1],inconclusive: 0.929% [signal inhibitor]
O=C1CC(N2CC=C(c3ccccc3)CC2)C(=O)N1c1ccc(F)cc1 (stereo unspecified),IkBa stabilization activation,[1],inconclusive: 17.4% [signal inhibitor]
O=C(O)c1cccc(Cl)c1,IkBa stabilization activation,[1],inactive
O=C(Cn1ncc2c3ccccc3n(Cc3cccc(Cl)c3)c2c1=O)N1CCC2(CC1)OCCO2,IkBa stabilization activation,[1],inconclusive: 3.76% [signal inhibitor]
Brc1ccc(Oc2cc(Br)c(Br)cc2Br)c(Br)c1,IkBa stabilization activation,[1],inactive
Cc1ccc(-n2nc(C)c3c2NC(=O)CSC3c2ccc(O)cc2)cc1Cl (stereo unspecified),IkBa stabilization activation,[1],inconclusive: -2.17% [signal inhibitor]
CNCCc1ccc(O)c(O)c1,IkBa stabilization activation,[1],inactive
CCCCn1c(O)c(C(CC)=NCc2ccc3c(c2)OCO3)c(=O)[nH]c1=O,IkBa stabilization activation,[1],inconclusive: 0.681% [signal inhibitor]
CN(C(=O)Cc1ccc(Cl)c(Cl)c1)[C@H](CN1CCCC1)c1ccccc1,IkBa stabilization activation,[1],inconclusive: 1.19% [signal inhibitor]
Oc1ccc([C@H](O)[C@@H]2CCCCN2)cc1O,IkBa stabilization activation,[1],"inactive: -0.668% [at 11.4 µM, scaled: untreated 0%, proteasome inhibitor 100%]"
c1nc(N2CC2)c2cnn([C@@H]3CCCCO3)c2n1,IkBa stabilization activation,[1],"inactive: 0.0717% [at 11.4 µM, scaled: untreated 0%, proteasome inhibitor 100%]"
C=CCn1c(O)c(C(CC)=NCc2cc(OC)cc(OC)c2)c(=O)[nH]c1=O,IkBa stabilization activation,[1],inactive
CCCC12CN3CC(C)(CN(C1)C3c1ccccn1)C2=O (stereo unspecified),IkBa stabilization activation,[1],inconclusive: -0.208% [signal inhibitor]
CCCC1(CCC)C(=O)NC(=NCc2ccccc2)NC1=O,IkBa stabilization activation,[1],inconclusive: 1.59% [signal inhibitor]
COc1cc2c(C(=O)N3CCN(C)CC3)c(C)n(C)c2cc1Br,IkBa stabilization activation,[1],inactive
CCN(CC)c1ncnc2c1ncn2[C@@H]1O[C@@H](COP(=O)(O)OP(=O)(O)C(Br)(Br)P(=O)(O)O)[C@H](O)[C@@H]1O,IkBa stabilization activation,[1],inactive
COC(=O)/C=C\C(=O)N[C@@H]1CC[C@@]2(O)[C@H]3Cc4ccc(O)c5c4[C@@]2(CCN3CC2CC2)[C@@H]1O5,IkBa stabilization activation,[1],inconclusive: 4.06% [signal inhibitor]
COc1ccc(NC(C)=O)cc1NC(=O)c1cccn(Cc2ccccc2)c1=O,IkBa stabilization activation,[1],inconclusive: 2.94% [signal inhibitor]
Cc1ccc(Cn2nnnc2CN2CCC(n3nnc4cc(C)ccc43)CC2)cc1,IkBa stabilization activation,[1],inconclusive: 3.88% [signal inhibitor]
C[C@H]1C[C@@H](C)C(=O)[C@@H]([C@H](O)CC2CC(=O)NC(=O)C2)C1,Potency,[1],"inconclusive: 501 nM [rising, full curve]"
Clc1cccc2ccccc12,IkBa stabilization activation,[1],inactive
CCOC(=O)c1c(N)n(CCCOC(=O)c2ccco2)c2nc3ccccc3nc12,IkBa stabilization activation,[1],inactive
Cc1ccc2nc3c(cc2c1)CC1(C(=O)N(C)C(=O)N(C)C1=O)C1CCCCN31 (stereo unspecified),IkBa stabilization activation,[1],inactive
COC(C)(C)CCCC(C)C/C=C/C(C)=C/C(=O)OC(C)C (stereo unspecified),Potency,[1],"inconclusive: 5010 nM [signal inhibitor, partial curve]"
